This note sets out measurements from ChEMBL document CHEMBL4888484, “Replenishing the malaria drug discovery pipeline: Screening and hit evaluation of the MMV Hit Generation Library 1 (HGL1) against asexual blood stage Plasmodium falciparum ,using a nano luciferase reporter read-out” (2022).

Molecules are shown by their SMILES. Hit rate of the full screen: of about 150,000 compounds, about 540 (0.36%) showed an effect of 50% or more. The list shows a part of the results.

In this test the test system is Plasmodium falciparum. Nature of the test: Primary screen in NF54 nanoGlo assay, in single point, at 2uM, 72h; a lower Z score goes with more inhibition. It is filed as functional, Erythrocyte. To be noted: timepoint 72 hour.
For `CC(C)N(CCc1nc(-c2ccccc2)no1)C(=O)Cc1ccc(F)cc1`, the % Inhibition (as a rule, the relative decrease from the control value, in per cent) is -10% and the Z score is on record as 1.33.
`Cc1cc(S(=O)(=O)N2CCN(Cc3ncccc3Cl)CC2)c(C)s1`: the “% Inhibition” value was -11% and the Z score amounted to 1.35.
Consider `CNc1nc(NC[C@H]2CCCN(C3CCCC3)C2)ncc1F`, for which the “% Inhibition” value amounted to 10% and the Z score was -1.73.
For the compound `O=C(NCc1cccnc1)N1CCN(c2nccs2)CC1`, the “% Inhibition” value is given as -2% and the Z score is listed as 0.22.
As to `CCOc1ccccc1-c1nc(CN2CCN(c3cccc(OC)c3)C(=O)C2)c(C)o1`, the “% Inhibition” value was -3% and the Z score is given as 0.63.
With `CN(CCc1c[nH]c2ccc(O)cc12)C[C@]1(c2ccc(F)cc2)CCOC1`, the “% Inhibition” value is listed as -7% and the Z score was found to be 1.01.
For `CCN1CCC(NC(=O)Nc2ccc(C)s2)CC1C` (stereo not drawn), in that order: -6% and 0.76.
For `CC(NC(=O)C1C2C=CC(C2)C1C(=O)O)c1nc(C(C)(C)C)cs1` (stereo not drawn), in that order: -4% and 0.54.
As to `Cn1c(CNC(=O)NCc2cc(Cl)c(Cl)n2C)cc(Cl)c1Cl`, the “% Inhibition” value was 34% and the Z score is given as -4.4.
With `O=C(NCC(=O)N1CCC[C@]2(CC=CCC2)C1)c1ccc(C(F)(F)F)cc1`, the “% Inhibition” value is recorded as 3% and the Z score was -0.33.
`N#Cc1ncn(CC(=O)c2c[nH]c3ccccc23)c1C#N`: the “% Inhibition” value was 2% and the Z score is reported as -0.36.
For `Cc1cc(C[C@H](C)n2cnc3cccc(F)c3c2=O)[nH]n1`, in that order: 12% and -1.63.
Regarding `C[C@@H](c1ncnn1-c1ccncc1)N1CCN(C)CC1`, the “% Inhibition” value is reported as -17% and the Z score stood at 3.35.
Take `CC[C@H](C)N(C)CCNC(=O)c1ccc(OC)c(OC(F)F)c1`: the “% Inhibition” value is on record as -13% and the Z score amounted to 1.36.
In the case of `C[C@H](NCc1cncs1)c1ccc(Cl)cc1Cl`, the “% Inhibition” value is on record as -12% and the Z score turned out to be 1.77.
For `C[C@@H](c1nc2ccccc2n1C(F)F)N1CCC(c2nnc[nH]2)CC1` the same measures were 18% and -2.3.
Take `CCn1cnnc1CN1CC[C@@]2(CCCN(C3CCCCC3)C2=O)C1`: the “% Inhibition” value was 10% and the Z score is recorded as -1.93.
Regarding `CC(C)NC(=O)[C@H](C)Oc1ccc(C(N)=O)cc1`, the “% Inhibition” value is -3% and the Z score is 0.43.
As for `CO[C@H]1CN(C(=O)c2cccc3ccccc23)C[C@@H]1O`, the “% Inhibition” value is -11% and the Z score was 1.55.
Take `O=C1CCCN1c1cccc(C(=O)N2CCC[C@H]2c2ccc3c(c2)OCCO3)c1`: the “% Inhibition” value was determined as 5% and the Z score is listed as -0.85.
Take `CCOCCNC(=O)Cn1cccnc1=O`: the “% Inhibition” value was -2% and the Z score is 0.21.
Regarding `Cc1cc(C)n2c(C(=O)NCc3cc(CC(C)C)no3)nnc2n1`, the “% Inhibition” value is reported as -5% and the Z score is on record as 0.44.
`COCCOc1nc(-c2ccc(F)cc2)n(-c2cccc(NC(=O)Nc3ccc(OC)cc3)c2)n1`: the “% Inhibition” value is 2% and the Z score is listed as -0.19.
For `Cc1ccccc1C(=O)NCCC(=O)N1CCCC1C1CCCN(Cc2ccccc2)C1` (stereo not drawn), the “% Inhibition” value was -7% and the Z score is listed as 0.66.
For `CC1(C)CN(CCC2OCCO2)CCN1CCC1OCCO1`, the “% Inhibition” value is listed as -1% and the Z score is 0.11.
Regarding `CN(Cc1cnccn1)C(=O)[C@H](O)C1CCCCC1`, the “% Inhibition” value is recorded as -6% and the Z score was 0.9.
For `CN(Cc1ccccc1)c1nc2nonc2nc1N1CCC[C@H](CN2CCCC2=O)C1`, in that order: -26% and 2.33.
Take `Cc1cccc2c(-c3nc(N)c4cnn(C)c4n3)c[nH]c12`: the “% Inhibition” value turned out to be 13% and the Z score is -1.82.
For the compound `Cc1ccccc1C1=CCN(C(=O)c2cccnc2OCCO)C1`, the “% Inhibition” value was 2% and the Z score is -0.22.
As for `COc1ccc(F)c(-c2cc(N)nc(N(C)C)n2)c1`, the “% Inhibition” value is on record as -15% and the Z score worked out at 2.16.
Regarding `Cc1cccc(Cl)c1N1C(=O)[C@@H]2CS(=O)(=O)CCN2C1=O`, the “% Inhibition” value came out at 1% and the Z score is -0.12.
For `Cn1nncc1COc1cc(F)cc(F)c1` the same measures were -14% and 1.59.
For `CCOC(=O)c1ncn(Cc2ccc3c(c2)OCO3)c1N`, the “% Inhibition” value is -12% and the Z score is given as 1.19.
Regarding `COc1cc2c(cc1NC(=O)NCCNc1nc(C)cc(=O)[nH]1)OCO2`, the “% Inhibition” value is listed as -9% and the Z score was 1.18.
With `Cc1nc(NC(=O)N2CCN(c3cn[nH]c(=O)c3)CC2)nn1C(C)C`, the “% Inhibition” value is -8% and the Z score stood at 1.53.
Consider `CCOCCO/C(=N/C(=O)c1ccc(C)cc1)NCc1ccccc1`, for which the “% Inhibition” value is recorded as -16% and the Z score was determined as 2.05.
As to `COC(=O)c1nc(NC(=O)COc2cn(C)c(C)cc2=O)sc1-c1ccccc1Cl`, the “% Inhibition” value was -11% and the Z score is 1.25.
`C[C@H]1[C@@H](NCc2cccc(Cl)c2F)CCS1(=O)=O`: the “% Inhibition” value was -2% and the Z score amounted to 0.41.
For `CCN1CCN(C(=O)[C@]2(C)CCCCO2)CC1(C)C`, the “% Inhibition” value is -7% and the Z score is given as 1.28.
For the compound `O=C(O)Cn1nc(-c2ccncc2)nc1-c1ccc(Cl)cc1F`, the “% Inhibition” value is 1% and the Z score is on record as -0.16.
On to `CC(=O)Nc1ccc(S(=O)(=O)NC(=O)c2n[nH]c(C)c2C)cc1`, for which the “% Inhibition” value is on record as -17% and the Z score is listed as 2.56.
As for `CC(C)NC(=O)NC[C@H]1O[C@@H](Cc2nc(-c3ccc(F)cc3)no2)[C@H](O)[C@@H]1O`, the “% Inhibition” value was found to be 31% and the Z score is given as -3.47.
For `CC(C)CN(CC(=O)N1CCc2sccc2[C@@H]1COc1ccc(F)cc1)C(=O)Nc1cccc(Cl)c1`, in that order: -9% and 0.88.
For `Cn1cc(CN2CCc3ccccc3C2)cn1` the same measures were -3% and 0.23.
For `CC(C)c1noc(-c2ccc(N(C)C[C@H](O)c3ccccc3)nc2)n1`, the “% Inhibition” value was -11% and the Z score stood at 1.42.
With `COC(=O)[C@@H]1C[C@H](O)CCN1C(=O)c1nn(C)c2ccc(C)cc12`, the “% Inhibition” value is reported as -11% and the Z score was found to be 2.01.
As to `Cc1cnc(C(=O)NCc2nccnc2-c2ccncc2)cn1`, the “% Inhibition” value was 15% and the Z score is -1.9.
As for `CCn1ncc(CN2CCN(C(=O)c3nn(C)cc3Cl)CC2)c1C`, the “% Inhibition” value is given as -10% and the Z score came out at 1.34.
Take `CN(C)c1cncc(O[C@H]2CCN(C(=O)c3noc4c3CCCC4)C2)n1`: the “% Inhibition” value is -10% and the Z score worked out at 1.55.
As for `O=C1NC2(CCCC2)C(=O)N1Cc1cc(Cl)c2c(c1)OCO2`, the “% Inhibition” value is given as -6% and the Z score was determined as 0.56.
For the compound `COc1cc(NC(=O)C2CCN(S(=O)(=O)c3cc4c(cc3C)NC(=O)CO4)CC2)cc(OC)c1`, the “% Inhibition” value is on record as 9% and the Z score is reported as -1.06.
Consider `Cc1nn(C)c2c(N3CCC[C@H](C(=O)NCc4cccnc4)C3)nccc12`, for which the “% Inhibition” value is reported as -13% and the Z score is given as 2.16.
For the compound `Cc1cc(CS(=O)(=O)CC(=O)NC2CCCCCC2)no1`, the “% Inhibition” value was -18% and the Z score turned out to be 2.31.
With `O=C(c1c[nH]c(=O)c(C(F)(F)F)c1)N1CCCC[C@H]1c1ccco1`, the “% Inhibition” value is listed as 0% and the Z score was -0.05.
